# Sequences with one replicate were seen in a single cluster, so their values are uncertain.
# System: ATP
# Assay: switch fluorescence ratio, 500 uM ATP over buffer (Cy3 cluster intensity, sum of 5 cycles each) (fold (ratio)); higher = stronger signal-on switching upon ATP binding; sequences stand for … in TCGTCGGCAGCGTCAGATGTGTATAAGAGACAGTTTTTTTTTTTTTTTTTTTTTTTTT…TC
# Conditions: aptamer strand: ATP DNA aptamer (quencher-CACCTGGGGGAGTATTGCGGAGGAAGG + anchor), 100 nM annealed; ATP concentration: 500 uM; one replicate
# Procedure, shortened: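 Values give the fluorescence ratio for each switch-domain sequence, averaged from per-cluster ratios of summed target-cycle to summed buffer-cycle Cy3 intensity. The Cy3-labelled switching-strand clusters sat on a modified Illumina MiSeq flow-cell, were annealed to 100 nM quencher-labelled ATP aptamer, and were imaged in selection buffer, then after 15 min with 500 uM ATP at 22 °C. Five cycles ran with NaOH stripping and re-annealing between them, and clusters outside 100-1000 RFU were excluded.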
# 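Also: ATP exposure 15 min at 22 °C before imaging.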
row,Sequence,switch fluorescence ratio
1,TCGAGTTGCG,0.957
2,TCGAGTTTTA,1.07
3,TCGATACCGG,1.04
4,TCGATACGTG,1.02
5,TCGATATGGC,0.931
6,TCGATCAAA,1.01
7,TCGATCAGTA,0.949
8,TCGATCGAG,0.941
9,TCGATCGGTA,1
10,TCGATCGTAG,0.995
11,TCGATGGGAT,1.03
12,TCGATGGTCA,0.986
13,TCGATGTAAG,1.04
14,TCGCAAACCC,1.03
15,TCGCAACTGA,1.7
16,TCGCACAATA,1.47
17,TCGCACCCCA,1.67
18,TCGCACGGTT,1.02
19,TCGCATTCTC,4.28
20,TCGCCCCTAA,1.03
21,TCGCCCGTCT,0.932
22,TCGCCGTTTG,1.03
23,TCGCGACACC,1.29
24,TCGCGCTTCT,1.04
25,TCGCGGAATA,1.06

row,Sequence,switch fluorescence ratio
1,TCGCGGCCCT,1.02
2,TCGCGGCTGG,0.995
3,TCGCGTCTAC,1.57
4,TCGCGTGTCA,1.04
5,TCGCTAGCTA,1.03
6,TCGCTATATC,4.91
7,TCGCTCATTC,1.27
8,TCGCTCGGCT,0.922
9,TCGCTCTCGC,1.04
10,TCGCTGTTCA,1.01
11,TCGCTTCCAG,0.994
12,TCGGAAGG,0.956
13,TCGGAAGTGT,0.97
14,TCGGAATTAC,4.29
15,TCGGACAGAT,1.01
16,TCGGACGAAA,4.44
17,TCGGACGGTT,1.03
18,TCGGACGTG,0.994
19,TCGGACTCAA,2.47
20,TCGGACTCCG,1.07
21,TCGGAGAGCA,1.06
22,TCGGAGTACG,1.01
23,TCGGATCGAG,1
24,TCGGATTTAA,1
25,TCGGCCCGT,1.01

row,Sequence,switch fluorescence ratio
1,TCGGCGTGCT,1.02
2,TCGGCTAAGA,1.06
3,TCGGCTACTA,1.02
4,TCGGCTATAG,1.09
5,TCGGCTCAGG,1.06
6,TCGGCTCCGT,1.03
7,TCGGGAGGTG,1.03
8,TCGGGATGCA,0.976
9,TCGGGCACAT,1.02
10,TCGGGGAAGC,1.01
11,TCGGGGACAT,1.02
12,TCGGGGATTA,1.01
13,TCGGGGGAGT,0.966
14,TCGGGGGCCG,0.993
15,TCGGGGTCAC,0.988
16,TCGGGTACAG,1.03
17,TCGGGTCCTT,1.03
18,TCGGGTGATT,1.04
19,TCGGGTGCTA,1.03
20,TCGGGTGTAG,0.993
21,TCGGGTGTGG,1.03
22,TCGGGTTTGC,1.02
23,TCGGTAGACG,0.902
24,TCGGTCTCAT,0.987
25,TCGGTCTTTA,1.02

row,Sequence,switch fluorescence ratio
1,TCGTAAAAAT,1.08
2,TCGTAATGTT,1.05
3,TCGTACAAAG,1.04
4,TCGTACGCCC,2.09
5,TCGTAGTATG,1.01
6,TCGTAGTTAT,1.1
7,TCGTATCGAT,0.985
8,TCGTATTGTA,0.988
9,TCGTCAGATG,0.965
10,TCGTCCATTC,1.09
11,TCGTCCCGCT,1.1
12,TCGTCGTTA,0.933
13,TCGTGAAGCA,1.12
14,TCGTGCAATT,1.72
15,TCGTGCCGAG,1.02
16,TCGTGGCGTA,0.988
17,TCGTGTCAAA,0.996
18,TCGTGTGGGA,1.03
19,TCGTGTGTTT,1.01
20,TCGTTCGGTC,1.71
21,TCGTTCTGTG,0.952
22,TCGTTGACCT,1.05
23,TCGTTGGAGG,1.01
24,TCGTTGGCGA,0.974
25,TCGTTGGGTA,1.02

row,Sequence,switch fluorescence ratio
1,TCGTTTCTCT,0.997
2,TCGTTTGTGC,0.995
3,TCTAAAAAGC,0.992
4,TCTAAATTGA,0.944
5,TCTAACAACT,0.991
6,TCTAACGGGT,0.993
7,TCTAAGAGTA,0.982
8,TCTAAGCGTG,1.01
9,TCTAAGGCTT,1.03
10,TCTAAGTGTG,1
11,TCTACAAATG,0.99
12,TCTACCAAG,1.04
13,TCTACCATCC,1.4
14,TCTACGAGAA,1.07
15,TCTACGGTCC,1.1
16,TCTACTCCGG,1.26
17,TCTAGAGCTG,0.979
18,TCTAGATGCC,1.08
19,TCTAGCTCCA,1.07
20,TCTAGCTCCG,1.04
21,TCTAGGGGCC,1.01
22,TCTAGTCACC,1.05
23,TCTATAAGAG,0.965
24,TCTATACTGT,1.01
25,TCTATAGCGG,1.03

row,Sequence,switch fluorescence ratio
1,TCTATATTCT,1
2,TCTATCGTCT,0.96
3,TCTATGTATG,0.983
4,TCTATTAGCA,1.02
5,TCTATTCAGT,1.02
6,TCTATTTAAG,1.01
7,TCTCAAAAC,1.09
8,TCTCACAATC,3.33
9,TCTCACCAAG,1.09
10,TCTCACTAAA,0.995
11,TCTCAGACGC,1.21
12,TCTCAGACGG,0.983
13,TCTCATCACT,0.991
14,TCTCATTTGG,0.982
15,TCTCCAAAGG,1.08
16,TCTCCCGGGG,1.26
17,TCTCCGAGAG,1.84
18,TCTCCGTCCC,2.45
19,TCTCGAAGTT,1.08
20,TCTCGAGTCT,0.987
21,TCTCGCACTG,1.17
22,TCTCGCTGCA,0.981
23,TCTCGCTGTG,1
24,TCTCGGGAGC,1.01
25,TCTCGTACG,0.995

row,Sequence,switch fluorescence ratio
1,TCTCGTATT,1.11
2,TCTCGTTATG,0.992
3,TCTCTACATC,1.12
4,TCTCTAGGGC,1.08
5,TCTCTATGTT,0.996
6,TCTCTGACTC,1.21
7,TCTCTTGGAA,1
8,TCTGAACACG,0.999
9,TCTGAAGTCG,1.08
10,TCTGAATTTG,1.2
11,TCTGAGAAGA,1.01
12,TCTGAGATA,1.01
13,TCTGAGCGTC,0.982
14,TCTGATCATG,0.991
15,TCTGCCCACA,1.39
16,TCTGCCTAAA,0.992
17,TCTGCGAAAC,2.03
18,TCTGCGAATC,1.61
19,TCTGCGAGT,1.04
20,TCTGCGATGA,1.14
21,TCTGCTCCGG,1.13
22,TCTGCTTATG,0.994
23,TCTGGCATTT,1.08
24,TCTGGCGCTC,1.16
25,TCTGGGGGCC,1.03

row,Sequence,switch fluorescence ratio
1,TCTGGGGTTC,0.987
2,TCTGGGTCGA,1.03
3,TCTGGTAAGT,1.02
4,TCTGGTGCCT,1.04
5,TCTGTAGGAA,1.11
6,TCTGTAGTAG,0.987
7,TCTGTCAATA,1.09
8,TCTGTCGATA,1.06
9,TCTGTCGTCT,1.06
10,TCTGTGCCGC,1.08
11,TCTGTTCAGT,1.02
12,TCTGTTGGAG,0.995
13,TCTGTTTACA,0.964
14,TCTGTTTTCC,1.02
15,TCTGTTTTTC,1.1
16,TCTTAAACGA,1.01
17,TCTTAACATG,0.956
18,TCTTAAGGTG,1.93
19,TCTTAATTGT,0.984
20,TCTTACATCC,1.07
21,TCTTACGTTA,1.13
22,TCTTACTCTG,1.26
23,TCTTAGAGAG,0.924
24,TCTTATAAA,1.02
25,TCTTATGGAT,1.01
